# Experimental data as given in the supplement of paper PMC8728848.
# The other results are listed elsewhere or left out.
# B1: BT3172pd (Bacteroides thetaiotaomicron) (protein)
# chain: MLPLRAEHYYYKQISLKEGLPSNVRCILRDEQGFIWIGTKAGLGKFDGHQLKRYKHQANDPHSLLHNLIYQIAEDKQHNIWILTEKGIARYQQQSNNFTFPTDEEGNYITAYSFCLVPDGILFGGKDRIYKYSYKDSSLRLLQYFNANSFKITALSVWDSKTLLCCSRWTGLYLVDLQTGEHRRPPFDCGPEITSMITDSKNRIWIAPYSGGLRCYSRDGKLSASYTTHNSSLSNDIVLSLAEREEQLWIGTDGGGINILHPETGEISQLEYIPGRENYSLPANSILCLHNDYNNNVWAGSTCNGLISIREVSMKTYTDVVPGNDRGLSNGTVRSLYRQSPDSIWIGTDGGGINLFSPHTEKFTHYSSTWGDKVAFISGFTPGKLLISLFSKGVFVFNPATGEKQPFTIIDKETTTRLCNRGKSVNLYQNTPNTVLFLGDHIYQYHLKEKKFSTITEEEGKDIVGTLVPFDHQENLTYINDIKHIYELDDQTSRLKTVFECYTDTVISSVSHDEQGHFWIGSNFGLIHYDPVLKSRTLVPTNLFTEINMVLCDQKGKVWIGVDNMLFAYFIKEQKFVLFGESNGAIQNEYLPNARLVNEQGDAYIGGVKGMLRIDGQLLLNTSEMPELQLLDITINGESANHEWYNHPAKISVPWNSNISIRIMSREEDIFRQKIYRYQIEGLNNEYTESYNPELVIRSLLPGSYRIMASCTAKDGSWIPDQQVLELTVLPPWYRTHHHHHH
# Tests used:
# Test in all cases: glycan array binding signal (z-score within array); higher = stronger binding
# Settings in all cases: glycan notation: IUPAC condensed, linker removed
# [1] = molecular target: Fuc(a1-2)Gal(b1-4)GlcNAc(b1-3)Gal(b1-4)GlcNAc(b1-3)Gal(b1-4)GlcNAc
# Procedure, shortened: (§1)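 Negative Z-scores can be read as non-binding. The Z-score is calculated within each array and then averaged across arrays of one protein sequence at different concentrations or buffers and across linkers. Arrays, 3228 in all, were curated from the Consortium for Functional Glycomics database and kept only where the protein sequence was available.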
# [2] = molecular target: Fuc(a1-2)Gal(b1-4)GlcNAc(b1-3)GalNAc
# Procedure, shortened: as §1
# [3] = molecular target: Fuc(a1-2)Gal(b1-4)GlcNAc(b1-3)[Fuc(a1-2)Gal(b1-4)GlcNAc(b1-6)]GalNAc
# Procedure, shortened: as §1
# [4] = molecular target: Fuc(a1-2)Gal(b1-4)GlcNAc(b1-3)[Fuc(a1-3)[Gal(b1-4)]GlcNAc(b1-6)]Gal(b1-4)Glc
# Procedure, shortened: as §1
# [5] = molecular target: Fuc(a1-2)Gal(b1-4)GlcNAc(b1-6)GalNAc
# Procedure, shortened: as §1
# [6] = molecular target: Fuc(a1-2)Gal(b1-4)GlcNAc6S
# Procedure, shortened: as §1
# [7] = molecular target: Fuc(a1-2)Gal(b1-4)[Fuc(a1-3)]GlcNAc
# Procedure, shortened: as §1
# [8] = molecular target: Fuc(a1-2)Gal(b1-4)[Fuc(a1-3)]GlcNAc(b1-2)Man(a1-3)[Fuc(a1-2)Gal(b1-4)[Fuc(a1-3)]GlcNAc(b1-2)Man(a1-6)]Man(b1-4)GlcNAc(b1-4)[Fuc(a1-6)]GlcNAc
# Procedure, shortened: as §1
# [9] = molecular target: Fuc(a1-2)Gal(b1-4)[Fuc(a1-3)]GlcNAc(b1-2)[Fuc(a1-2)Gal(b1-4)[Fuc(a1-3)]GlcNAc(b1-4)]Man(a1-3)[Fuc(a1-2)Gal(b1-4)[Fuc(a1-3)]GlcNAc(b1-2)Man(a1-6)]Man(b1-4)GlcNAc(b1-4)GlcNAc
# Procedure, shortened: as §1
# [10] = molecular target: Fuc(a1-2)Gal(b1-4)[Fuc(a1-3)]GlcNAc(b1-3)Gal(b1-4)[Fuc(a1-3)]GlcNAc
# Procedure, shortened: as §1
# [11] = molecular target: Fuc(a1-2)Gal(b1-4)[Fuc(a1-3)]GlcNAc(b1-3)Gal(b1-4)[Fuc(a1-3)]GlcNAc(b1-3)Gal(b1-4)[Fuc(a1-3)]GlcNAc
# Procedure, shortened: as §1
# [12] = molecular target: Fuc(a1-2)Gal(b1-4)[Fuc(a1-3)]GlcNAc(b1-3)GalNAc
# Procedure, shortened: as §1
# [13] = molecular target: Fuc(a1-2)Gal(b1-4)[Fuc(a1-3)]GlcNAc(b1-3)[Neu5Ac(a2-6)Gal(b1-4)GlcNAc(b1-6)]Gal(b1-4)Glc
# Procedure, shortened: as §1
# [14] = molecular target: Fuc(a1-2)Gal3S(b1-4)GlcNAc
# Procedure, shortened: as §1
# [15] = molecular target: Fuc(a1-2)Gal6S(b1-3)GlcNAc
# Procedure, shortened: as §1
# [16] = molecular target: Fuc(a1-2)Gal6S(b1-3)GlcNAc6S
# Procedure, shortened: as §1
# Fuc(a1-2)Gal6S(b1-4)Glc = molecular target: Fuc(a1-2)Gal6S(b1-4)Glc
# Procedure, shortened: as §1
# [17] = molecular target: Fuc(a1-2)Gal6S(b1-4)Glc6S
# Procedure, shortened: as §1
# Fuc(a1-2)[Gal(a1-3)]Gal = molecular target: Fuc(a1-2)[Gal(a1-3)]Gal
# Procedure, shortened: as §1
# [18] = molecular target: Fuc(a1-2)[Gal(a1-3)]Gal(b1-3)GalNAc
# Procedure, shortened: as §1
# [19] = molecular target: Fuc(a1-2)[Gal(a1-3)]Gal(b1-3)GalNAc(b1-3)Gal(a1-4)Gal(b1-4)Glc
# Procedure, shortened: as §1
# [20] = molecular target: Fuc(a1-2)[Gal(a1-3)]Gal(b1-3)GlcNAc
# Procedure, shortened: as §1
# [21] = molecular target: Fuc(a1-2)[Gal(a1-3)]Gal(b1-3)GlcNAc(b1-2)Man(a1-3)[Fuc(a1-2)[Gal(a1-3)]Gal(b1-3)GlcNAc(b1-2)Man(a1-6)]Man(b1-4)GlcNAc(b1-4)GlcNAc
# Procedure, shortened: as §1
# [22] = molecular target: Fuc(a1-2)[Gal(a1-3)]Gal(b1-3)GlcNAc(b1-2)Man(a1-3)[Fuc(a1-2)[Gal(a1-3)]Gal(b1-3)GlcNAc(b1-2)Man(a1-6)]Man(b1-4)GlcNAc(b1-4)[Fuc(a1-6)]GlcNAc
# Procedure, shortened: as §1
# [23] = molecular target: Fuc(a1-2)[Gal(a1-3)]Gal(b1-3)GlcNAc(b1-3)GalNAc
# Procedure, shortened: as §1
# [24] = molecular target: Fuc(a1-2)[Gal(a1-3)]Gal(b1-3)GlcNAc(b1-6)GalNAc
# Procedure, shortened: as §1
# [25] = molecular target: Fuc(a1-2)[Gal(a1-3)]Gal(b1-4)Glc
# Procedure, shortened: as §1
# [26] = molecular target: Fuc(a1-2)[Gal(a1-3)]Gal(b1-4)GlcNAc
# Procedure, shortened: as §1
# [27] = molecular target: Fuc(a1-2)[Gal(a1-3)]Gal(b1-4)GlcNAc(b1-2)Man
# Procedure, shortened: as §1
# [28] = molecular target: Fuc(a1-2)[Gal(a1-3)]Gal(b1-4)GlcNAc(b1-2)Man(a1-3)[Fuc(a1-2)[Gal(a1-3)]Gal(b1-4)GlcNAc(b1-2)Man(a1-6)]Man(b1-4)GlcNAc(b1-4)GlcNAc
# Procedure, shortened: as §1
binder,measurement,setting,value
B1,glycan array binding signal (z-score),[1],-0.03
same,glycan array binding signal (z-score),[2],-0.024
same,glycan array binding signal (z-score),[3],-0.207
same,glycan array binding signal (z-score),[4],-0.126
same,glycan array binding signal (z-score),[5],1.07
same,glycan array binding signal (z-score),[6],0.882
same,glycan array binding signal (z-score),[7],0.165
same,glycan array binding signal (z-score),[8],-0.54
same,glycan array binding signal (z-score),[9],0.127
same,glycan array binding signal (z-score),[10],-0.649
same,glycan array binding signal (z-score),[11],-0.611
same,glycan array binding signal (z-score),[12],-0.425
same,glycan array binding signal (z-score),[13],-0.441
same,glycan array binding signal (z-score),[14],-0.052
same,glycan array binding signal (z-score),[15],0.303
same,glycan array binding signal (z-score),[16],0.599
same,glycan array binding signal (z-score),Fuc(a1-2)Gal6S(b1-4)Glc,-0.035
same,glycan array binding signal (z-score),[17],-0.485
same,glycan array binding signal (z-score),Fuc(a1-2)[Gal(a1-3)]Gal,-0.373
same,glycan array binding signal (z-score),[18],0.258
same,glycan array binding signal (z-score),[19],0.134
same,glycan array binding signal (z-score),[20],-0.107
same,glycan array binding signal (z-score),[21],-1.02
same,glycan array binding signal (z-score),[22],-3.2
same,glycan array binding signal (z-score),[23],0.76
same,glycan array binding signal (z-score),[24],-0.035
same,glycan array binding signal (z-score),[25],0.216
same,glycan array binding signal (z-score),[26],-0.52
same,glycan array binding signal (z-score),[27],0.395
same,glycan array binding signal (z-score),[28],0.095
